Test results as given in PubChem BioAssay AID686979 (National Center for Advancing Translational Sciences (NCATS), 2013).
The whole screen tested about 420,000 compounds, of which about 50,000 (12%) were called active. Inconclusive results, whose numbers are uncertain, are shown with a selection of clear calls. Calls follow the shape of the dose curve; as a rule, active = well fitted inhibition curve with a large enough effect; inconclusive = small, poorly fitted or top-dose-only effect; inactive = flat fitted curve, though single readings scatter. No potency is given beside an inconclusive call; the fits are too rough.

Assay: qHTS for Inhibitors of human tyrosyl-DNA phosphodiesterase 1 (TDP1): qHTS in cells in presence of CPT; also: nearly all actives have a fitted effect of over 55% in size
Conditions: chicken DT40 Tdp1-/-;hTDP1 cells + 20 nM CPT, ATP luminescence, 48 h; activity change, negative = growth inhibition: at 46.2 µM (top of the series) unless noted
Method in brief: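 Chicken DT40 Tdp1-/- cells stably complemented with human TDP1 were seeded at 400 cells/well in medium containing 20 nM camptothecin, exposed to pin-transferred compounds, and grown at 37 °C for at least 48 hr. Viability was read as ATP luminescence.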
% is scaled to controls: 0 for no effect and ±100 for the full control effect; potency is read from the fitted curve at half-maximal effect; tags tell the direction and shape of the fitted curve.

SMILES | Potency | activity change, negative = growth inhibition
C[C@H](CO)N1C[C@H](C)[C@@H](CN(C)Cc2ccc3c(c2)OCCN3C)OCc2cnnn2CCCC1=O | inconclusive [inhibitor, single point] | –
CCc1c(C)nc(SCc2cccnc2)[nH]c1=O | inactive | –
COc1ccc2c(c1)c(CC(=O)Nc1nnc(C3CC3)s1)c(C)n2C(=O)c1ccc(Cl)cc1 | active: 14.6 µM | –
CC(C)(C)CN1C(N)=NC[C@@H]1c1ccccc1 | inconclusive [inhibitor, single point] | –
CC(C)C(=O)Nc1ccc(C(=O)NNC(=O)CCCOc2ccc(Cl)cc2Cl)cc1 | inactive | –
O=C(CSc1nnc(-c2ccc(Cl)cc2)n1CC1CCCO1)NC1CCS(=O)(=O)C1 (stereo not drawn) | inactive | –
COc1ccc2c(c1)Cc1sc(NC(=O)c3ccccc3Br)nc1-2 | inconclusive [inhibitor, single point] | –
CC1(C)CC(=O)/C(=C\c2cccc([N+](=O)[O-])c2)C(C)(C)N1 | inconclusive [inhibitor, single point] | –
Cc1ccc(C)c(N2CCN(C(=O)c3ccc(CS(=O)Cc4cccc(Cl)c4)o3)CC2)c1 (stereo not drawn) | inconclusive [inhibitor, single point] | –
Cc1ccc2nc(NC(=O)c3ccc(-c4nc5ccccc5s4)s3)sc2c1 | inconclusive [inhibitor, full curve] | –
CC(CC(=O)c1ccc(F)cc1)N1CCN(c2ccccc2)CC1 (stereo not drawn) | active: 18.4 µM | –
Cc1ccc(NC(=S)NC(NC(=O)c2ccco2)C(Cl)(Cl)Cl)cc1 (stereo not drawn) | active: 16.4 µM | –
CCOC(=O)[C@]12CCC=C1N(CCC1=CCCCC1)C(=O)[C@H](CC(=O)N1CCCCC1)C2 | active: 18.4 µM | –
COc1ccc(N2CCN(C(=O)COC(=O)c3ccc(C)o3)CC2)cc1 | inconclusive [inhibitor, partial curve] | –
CCc1ccccc1N(C)C(=O)C1CCCN(c2ncnc3onc(-c4ccc(F)cc4)c23)C1 (stereo not drawn) | active: 13 µM | –
O=C1C2CCCCN2C(=O)N1CCCN1CCN(c2cccc(C(F)(F)F)c2)CC1 (stereo not drawn) | inactive | –
N#Cc1cc2c(nc1SCC(O)CS(=O)(=O)Cc1ccc(Cl)cc1)CCCC2 (stereo not drawn) | inconclusive [inhibitor, partial curve, poor fit] | –
Cn1ccc2c(N3c4ccccc4CCc4ccccc43)cc3c(c21)C1CCC3C1 (stereo not drawn) | active: 2.31 µM | –
O=C(NC1C(=O)NNC1c1ccccc1)c1ccccc1 (stereo not drawn) | inconclusive [inhibitor, single point] | –
O=c1[nH]nc(Cc2ccc(-c3ccc(Cl)cc3)o2)c2ccccc12 | inconclusive [inhibitor, partial curve] | –
Cc1cnc(CN(C)C(=O)C2CCC(=O)N(CCc3ccccc3)C2)[nH]1 (stereo not drawn) | inactive | –
O=C(c1ccc(COc2ccccc2Br)cc1)N1CCCCCC1 | inconclusive [inhibitor, single point] | –
CC1(C)Cc2c(cnn2-c2ccc(F)cc2)C(NC(=O)c2ccc(=O)oc2)C1 (stereo not drawn) | inconclusive [inhibitor, partial curve] | –
CC(=O)c1cccc(CN2CCCC(CCC(=O)NCc3ccc(C)o3)C2)c1 (stereo not drawn) | inconclusive [inhibitor, single point] | –
Cc1ccc(OCCn2c(CNc3cccc(C)c3)nc3ccccc32)cc1 | inconclusive [inhibitor, single point] | –

SMILES | Potency | activity change, negative = growth inhibition
Cc1ccccc1S(=O)(=O)NC(=O)C1(C)CCN1C(=O)C1(c2ccccc2)CC1 (stereo not drawn) | inactive | –
Cc1cccc(N2CCN(C(=O)C3CCCCC3)CC2)c1C | active: 29.1 µM | –
O=C(CCc1ccc(S(=O)(=O)NC2CCCCC2)cc1)NCc1ccccc1 | inactive | –
OCCN1CCN(c2ncnc3sc4c(c23)CCCC4)CC1 | inconclusive [inhibitor, single point] | –
COc1ccccc1CNc1cc(-c2ccccc2)nc2nncn12 | active: 23.1 µM | –
CCCCNC(=O)c1c(N)[nH]c(C(=O)c2ccccc2)c1-c1ccccn1 | inconclusive [inhibitor, single point] | –
CCN(CC)C(=O)c1sc(NC(=O)c2ccc(Br)o2)c(C(=O)OC)c1C | inconclusive [inhibitor, single point] | –
CCCNC(=O)c1ccc2c(=O)c(O)c(-c3cccc(Br)c3)[nH]c2c1 | inconclusive [inhibitor, single point] | –
CCCCCCn1c(=O)n2n(c1=O)[C@@H]1CN(S(=O)(=O)c3ccc(C)cc3)C[C@]1(O)[C@@H](OC(=O)NCc1ccco1)C2 | inconclusive [inhibitor, single point] | –
O=[N+]([O-])c1ccc(/C=C2\C=C(C(O)c3ccc([N+](=O)[O-])cc3)c3ccccc32)cc1 (stereo not drawn) | active: 6.31 µM | –
CC(=O)c1ccc(C(=O)N(CCCN(C)C)c2nc3c(C)c(C)ccc3s2)cc1 | active: 18.4 µM | –
CCCN(CCC)S(=O)(=O)c1ccc(C(=O)NNc2nc(-c3ccccc3)c3cc(Br)ccc3n2)cc1 | inactive | –
CCOc1cc(S(=O)(=O)NCCc2cccc(C)c2)c(OCC)cc1-n1cnnn1 | inconclusive [inhibitor, single point] | –
COc1ccc(N2Cc3cccc(C(=O)Nc4ccc(C(C)C)cc4)c3C2=O)cc1 | inactive | –
NC(=S)c1cc2cc(Br)ccc2oc1=O | inactive | –
Cc1ccc(NC(=O)C2CCN(S(=O)(=O)c3cnc[nH]3)CC2)nc1 | inactive | –
CN(C)S(=O)(=O)c1cccc(NC(=O)c2cc(=O)[nH]c(=O)[nH]2)c1 | inactive | –
COCCCNC(=O)/C(C#N)=C/c1c(N2CCN(C)CC2)nc2ccccn2c1=O | inactive | –
O=C(Cn1c(=O)[nH]c2ccsc2c1=O)N1CCN(c2ccc(F)cc2)CC1 | inactive | –
CS(=O)(=O)Nc1cccc(-c2nc(NCc3cccs3)c3ccccc3n2)c1 | inconclusive [inhibitor, single point] | –
COc1ccc(-c2cc3c(=O)n(CC(=O)NCCCN4CCC(Cc5ccccc5)CC4)ncn3n2)cc1 | inconclusive [inhibitor, partial curve, poor fit] | –
Cc1cccc(N(C(=O)c2snc(C(N)=O)c2N)C(C(=O)NCC2CCCO2)c2ccc(N(C)C)cc2)c1C (stereo not drawn) | inconclusive [inhibitor, partial curve] | –
Cc1c(C(=O)N2CCC(C)CC2)cccc1[N+](=O)[O-] | inactive | –
CC(=O)N(O)CCCCCNC(=O)CCC(=O)N(O)CCCCCNC(=O)CCC(=O)N(O)CCCCCNC(=O)CCC(=O)O | inactive | –
O=C(O)c1cccc(NC(=O)c2ccc(Cl)c(S(=O)(=O)N3CCCCCC3)c2)c1 | inactive | –

SMILES | Potency | activity change, negative = growth inhibition
CCn1c2ccc(F)cc2c2nnc(SCCN3CCOCC3)nc21 | inconclusive [inhibitor, full curve, poor fit] | –
O=C(NCCCNC(=O)NC1CCCCC1)NC1CCCCC1 | inactive | –
Cc1cccc(-n2c(C)cc(C=C3C(=O)c4ccccc4C3=O)c2C)c1 | inconclusive [inhibitor, single point] | –
COc1ccc(OC)c(NC(=O)/C=C/c2ccc(S(=O)(=O)N3CCOCC3)cc2)c1 | active: 25.9 µM | –
O=C(CN(c1ccc(Cl)c(C(F)(F)F)c1)S(=O)(=O)c1ccccc1)N1CCc2ccccc2C1 | inconclusive [inhibitor, single point] | –
CC1(C)N=C(N)NC(=NCCCOc2ccc([N+](=O)[O-])cc2)N1 | inactive | –
C=CCNC(=O)c1onc(CSc2ccc(F)cc2)c1C(=O)NCCOC | inactive | –
COc1ccc(C(=NN)c2ccc(OC)cc2)cc1 | inactive | –
COc1ccccc1-n1cc(-c2ccc(C)cc2)[nH]c1=S | active: 3.66 µM | –
Cc1ccc(S(=O)(=O)N2[C@@H](c3ccc4c(c3)OCO4)C(C(=O)O)=C[C@H]2C(C)(C)C)cc1 | inactive | –
COc1ccc(C(=O)CC(=O)Nc2ccc([N+](=O)[O-])cc2)cc1 | active: 16.4 µM | –
Cc1ccsc1C(=O)N(Cc1nnc(-c2ccccc2Cl)o1)C1CC1 | inconclusive [inhibitor, single point] | –
Cc1ccc(/C=C(\C#N)C(=O)Nc2ccccn2)o1 | inactive | –
Cc1c(Cl)cnc(NC(=O)COC(=O)[C@@H](NC(=O)c2ccco2)C(C)C)c1Cl | inconclusive [inhibitor, single point] | –
CCN(CC)CCNC(=O)c1ccc(NC(=O)c2cccc(S(=O)(=O)N3c4ccccc4CC3C)c2)cc1 (stereo not drawn) | inconclusive [inhibitor, single point] | –
Cc1nn2c([nH]c(=O)c3ccccc32)c1C=O | – | inconclusive: -30% [inhibitor]
Cc1cc(C(=O)CSc2nnc(-c3ccc4c(c3)OCO4)o2)c(C)n1-c1ccc(F)cc1 | inactive | –
CC1CCCC(NC(=O)C2CCN(S(=O)(=O)N3CCCCCC3)CC2)C1C (stereo not drawn) | inconclusive [inhibitor, single point] | –
COc1cccc(C(C)=NNc2ccc([N+](=O)[O-])cc2[N+](=O)[O-])c1OC | inconclusive [inhibitor, single point] | –
CNc1ncnc2ccc(-c3cccc(OC)c3)cc12 | active: 16.4 µM | –
CCOc1ccccc1/C=N/NC(=O)C[n+]1ccccc1 | inactive | –
Cc1nc2ccn(Cc3cccs3)c(=O)c2cc1C(=O)N1CCN(c2ccc(F)cc2)CC1 | inconclusive [inhibitor, single point] | –
COc1ccc(C(=O)N2CCc3ccccc3C2)cc1S(=O)(=O)N1CCCC1 | inconclusive [inhibitor, single point] | –
